# Hit rate of the full screen: of about 150,000 compounds, about 540 (0.36%) showed an effect of 50% or more. The list shows a part of the results.
# System: Plasmodium falciparum
# Assay: Primary screen in NF54 nanoGlo assay, in single point, at 2uM, 72h; a lower Z score goes with more inhibition
# Format: functional, Erythrocyte
# Settings: timepoint 72 hour
SMILES,% Inhibition [%],Z score
CC(C)N(Cc1ccccc1)C(=O)CCS(=O)(=O)Cc1ccccc1,-8,1.45
Cc1cc(C(=O)Nc2cc3c(=O)[nH]cnc3cc2F)n(C)n1,-8,1.35
Cc1ccc(F)c(CN2CCCn3nc(CNC(=O)C4CCC4)cc3C2)c1F,0,-0.03
CCCCN(CC(N)=O)Cc1cccc(F)c1,-6,0.89
O=C(CCn1cccn1)Nc1ccc2c(c1)OCO2,4,-0.65
O=C(c1ccc(Cl)cn1)N1CCC(O)(Cc2cccc(F)c2)CC1,-18,2.12
O=C(Nc1ccc(Cl)cc1Cl)C1=NCCCN1,-1,0.14
CC1(C)CN(C(=O)Cn2c(C3CC3)nc3ccccc32)C[C@]1(C)O,-3,0.54
CCc1ccccc1S(=O)(=O)N1CCC(c2nc(CNC(=O)C3CCC3)cs2)CC1,-6,0.75
COCC(=O)N[C@@H](Cc1ccc(F)cc1)C(C)C,-1,0.14
O=C(CCCc1cn[nH]c1)N1CCC([C@@H](O)CCc2ccccc2)CC1,-6,0.86
CC(C)N1C(=O)C[C@H](NC(=O)N(C)C2CCOCC2)C1=O,-9,0.78
Cc1nc(N2CCOCC2)ccc1NC(=O)[C@@H](N)COC(C)C,-2,0.24
Cc1nn(C)c(C)c1CCC(=O)N1CCC[C@H]1c1ccc(C(N)=O)s1,7,-1.22
CC(C)(C)c1nsc(NC(=O)NCc2nccs2)n1,-4,0.63
Cc1c(C(=O)N2CCOCC2)c(S(=O)(=O)N(C)Cc2ccccc2)c(C)n1C,-15,2.79
C[C@@H](NC(=O)c1ccco1)c1ccccc1,0,0.04
Cc1cc(C(=O)Nc2ccc(NC(=O)Cc3c[nH]cn3)cc2)co1,-7,0.99
CN(C[C@H]1CC(=O)N(C(C)(C)C)C1)C(=O)c1cncc(O)c1,-12,2.16
CCCCN1CCCC[C@@H]1CNc1ccc2nnnn2n1,-2,0.29
Cc1ccc2[nH]nc(C(=O)N[C@H]3CC(=O)N(C4CCCCCC4)C3)c2c1,-7,0.73
O=C(Nc1cc(C(F)(F)F)ccc1Cl)C1=C(c2ccccc2)S(=O)(=O)CCO1,9,-1.12
CN(Cc1nnnn1CC(F)(F)F)c1ccc(F)c(Cl)c1,11,-1.81
O=C(NCCc1c[nH]c2ccccc12)[C@@H]1CCCCO1,-8,1.51

# Source: ChEMBL document CHEMBL4888484, “Replenishing the malaria drug discovery pipeline: Screening and hit evaluation of the MMV Hit Generation Library 1 (HGL1) against asexual blood stage Plasmodium falciparum ,using a nano luciferase reporter read-out” (2022)
